# Several values for one entry are separate records, joined by “and”; a condition that tells them apart may be missing. Identical values can stand only once. The whole screen tested about 400,000 compounds, of which about 2,200 (0.55%) were called active. The shares of active, inactive and inconclusive entries below differ from those in the screen. Calls follow the shape of the dose curve; as a rule, active = well fitted inhibition curve with a large enough effect; inconclusive = small, poorly fitted or top-dose-only effect, or another doubt; inactive = no such curve, though single readings can be large or run the other way. Potencies beside an inconclusive call are fits to weak or partial responses and may not hold up.
# Molecular target: DNA polymerase kappa (Homo sapiens) (UniProt Q9UBT6)
# Chain of UniProt Q9UBT6 (Q9UBT6 whole entry, looked up): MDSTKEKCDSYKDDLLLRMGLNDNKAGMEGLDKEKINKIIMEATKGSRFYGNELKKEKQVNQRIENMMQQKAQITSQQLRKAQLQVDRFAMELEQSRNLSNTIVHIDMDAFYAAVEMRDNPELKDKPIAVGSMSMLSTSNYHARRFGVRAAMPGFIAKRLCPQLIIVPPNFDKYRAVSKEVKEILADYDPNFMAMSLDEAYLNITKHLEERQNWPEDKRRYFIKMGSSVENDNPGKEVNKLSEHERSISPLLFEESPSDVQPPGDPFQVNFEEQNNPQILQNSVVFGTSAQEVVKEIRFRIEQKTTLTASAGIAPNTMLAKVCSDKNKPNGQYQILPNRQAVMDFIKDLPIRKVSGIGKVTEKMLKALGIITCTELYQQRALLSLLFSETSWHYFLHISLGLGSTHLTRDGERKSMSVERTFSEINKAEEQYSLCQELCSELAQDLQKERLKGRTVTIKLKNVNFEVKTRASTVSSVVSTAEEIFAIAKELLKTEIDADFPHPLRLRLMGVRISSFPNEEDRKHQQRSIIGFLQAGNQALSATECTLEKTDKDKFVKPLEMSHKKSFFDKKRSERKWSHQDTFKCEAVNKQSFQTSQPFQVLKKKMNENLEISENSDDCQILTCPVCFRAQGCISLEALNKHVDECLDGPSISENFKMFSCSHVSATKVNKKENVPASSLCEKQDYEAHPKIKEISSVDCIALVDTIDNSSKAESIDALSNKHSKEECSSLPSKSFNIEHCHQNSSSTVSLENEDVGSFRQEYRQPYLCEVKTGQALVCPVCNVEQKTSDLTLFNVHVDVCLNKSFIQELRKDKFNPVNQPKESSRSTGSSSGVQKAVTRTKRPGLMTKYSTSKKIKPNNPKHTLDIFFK
# Experiment: qHTS for Inhibitors of Polymerase Kappa
# Conditions: purified Pol kappa, fluorescent DNA synthesis assay, 10 min; series mostly up to 107 µM
# How it was run: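 50 nM final substrate added after 15 min RT preincubation of 10 nM Pol kappa with compound; fluorescence read at 0 and 10 min.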
# Potency is read from the fitted curve at half-maximal effect; tags tell the direction and shape of the fitted curve.
row,SMILES,Potency
1,C#CCOCCOCCOCCNc1nc(N2CCN(C(=O)CCCCCCCCCCNC(=O)[C@H]([C@@H](C)CC)n3cc(CCCCN=C(N)N)nn3)CC2)nc(N2CCN(C(=O)CCCCCCCCCCNC(=O)[C@@H]([C@H](C)O)n3cc(C)nn3)CC2)n1,"inconclusive: 89.1 µM [inhibitor, partial curve, poor fit]"
2,CN1N/C(=C\c2ccccc2)N=C2C(=O)N(C)C(=O)N=C21,"inconclusive: 89.1 µM [inhibitor, single point]"
3,COC(=O)c1ccccc1-c1c2ccc(=N)cc-2oc2cc(N)ccc12,active: 28.2 µM
4,CCCN(c1ccc(C(C)C)cc1)S(=O)(=O)c1ccc2c(c1)n(C)c(=O)c(=O)n2C,inactive
5,C=CC1=C(C(=O)O)N2C(=O)[C@@H](NC(=O)/C(=N\O)c3csc(N)n3)[C@H]2SC1 (stereo in doubt),"inconclusive: 79.4 µM [inhibitor, partial curve]"
6,COc1cc(CNc2ccc3[nH]c(=O)[nH]c3c2)cc(Cl)c1OCC(=O)NC(C)(C)C,"inconclusive: 56.2 µM [inhibitor, partial curve, poor fit]"
7,Oc1ccc(-c2nc3ccccc3s2)c(O)c1,inactive
8,CCOc1cc(N2CCOCC2)c(OCC)cc1NC(C)C(=O)N1CCN(CC)CC1 (centres undefined),"inconclusive: 89.1 µM [inhibitor, single point]"
9,COCCCNC(=O)Cn1c(=O)n(-c2cccc(C)c2)c(=O)c2c1c1cc(C)ccc1n2C,inactive
10,Cc1cccc(CN2CCC(CNC(=O)Cn3ncc4c([nH]c5ccccc54)c3=O)CC2)c1,"inconclusive: 89.1 µM [inhibitor, single point]"
11,C=C(C)C(=O)Nc1cccc(C2=NOC3(C2)C[C@H](C(N)=O)N(C(=O)c2ccccc2C(=O)c2ccccc2)C3)c1 (some centres undefined),"inconclusive: 11.2 µM [inhibitor, full curve, poor fit]"
12,Nc1c(S(=O)(=O)O)cc(Nc2ccc(Cl)cc2)c2c1C(=O)c1ccccc1C2=O,"inconclusive: 33.6 µM [inhibitor, single point]"
13,CCc1ccc(NCc2cc3ccc(OC)cc3n(CC(=O)Nc3ccccc3C)c2=O)cc1,inactive
14,Cn1c(SCC(=O)Nc2ccc3nc(SCC(=O)N4CCCC4)sc3c2)nnc1-c1ccc(N)cc1,active: 50.1 µM
15,O=[n+]1c2c(n([O-])c3cc(F)c(F)cc31)CCCC2,"inconclusive: 79.4 µM [inhibitor, single point]"
16,CCOC(=O)C1=C(OCc2ccc(Cl)cc2)C2C=C(C)C=CC2N=C1 (centres undefined),inactive
17,CC(OC(=O)C1=Cc2ccccc2OC1)C(=O)NCC1CCCO1 (centres undefined),"inconclusive: 89.1 µM [inhibitor, single point]"
18,CC(=O)C1CCC2C3CC(C)C4=CC(=O)CC[C@@]4(C)C3C(O)C[C@@]12C (some centres undefined),inactive
19,Cc1[nH]n2c(=O)cc(-c3ccc(Cl)cc3)nc2c1-c1ccccc1,inactive
20,Nc1ccc(O)c(-c2nc3ccccc3s2)c1,"inconclusive: 79.4 µM [inhibitor, single point]"
21,O=c1c(O)c(-c2ccc(O)c(O)c2)oc2ccccc12,active: 0.355 µM
22,CCOc1ccc2nc3cc(N)ccc3c(N)c2c1,active: 22.4 µM

row,SMILES,Potency
1,CCN(CC)CCNc1ccc(CO)c2sc3ccccc3c(=O)c12,"inconclusive: 28.2 µM [inhibitor, partial curve] and inconclusive: 3.77 µM [inhibitor, partial curve, poor fit] and inconclusive: 89.1 µM [inhibitor, partial curve]"
2,O=C(O)c1ccc(/C=C2\SC(=S)N(NC(=O)c3ccc(Br)cc3)C2=O)cc1,"inconclusive: 100 µM [inhibitor, single point]"
3,COc1ccccc1CNc1nc(-c2ccco2)nn1C(=O)c1cc(OC)c(OC)c(OC)c1,inactive
4,CN(Cc1cnc2nc(N)nc(N)c2n1)c1ccc(C(=O)N[C@@H](CCC(=O)O)C(=O)O)cc1,"inconclusive: 14.1 µM [inhibitor, partial curve, poor fit] and inconclusive: 79.4 µM [inhibitor, partial curve]"
5,CNc1ccc(Br)cc(C(=O)/C=C/c2ccc(OC)cc2OC)c1=O,"inconclusive: 89.1 µM [inhibitor, partial curve, poor fit]"
6,O=C(Cc1cccs1)NC1C(=O)N2C(C(=O)[O-])=C(C[n+]3ccccc3)CSC12 (centres undefined),active: 3.55 µM
7,Cc1cc(Cl)ccc1NC(=O)Cn1nc(C)c2c(C)n(-c3ccccc3)nc2c1=O,"inconclusive: 89.1 µM [inhibitor, single point]"
8,COc1ccc(-c2cc(C3C4C=CCC(C)C4C(=O)N3Cc3ccccc3)ccc2F)cc1OC (centres undefined),inactive
9,COc1cc(C2CC(=O)Oc3cc4c(cc32)OCO4)cc(OC)c1OC (centres undefined),"inconclusive: 56.2 µM [inhibitor, single point]"
10,CCCC[C@@H](C=O)NC(=O)[C@H](CC(C)C)NC(=O)[C@H](CC(C)C)NC(C)=O,inactive
11,Cc1ccc(NC(=O)CN2C(=O)N/C(=C\c3cccn3-c3cccc(C(=O)O)c3)C2=O)cc1,active: 44.7 µM
12,CC(C)NC(=O)c1cc(=O)n(C)c(=O)n1C,inactive
13,COC1=C/C(=C/c2c(N)n3nc(CC(=O)N4CCCC4)sc3nc2=O)C=CC1=O,"inconclusive: 89.1 µM [inhibitor, partial curve, poor fit]"
14,CC(C)c1ccc(OCC(=O)Nc2cc(-c3ccccc3)no2)cc1,inactive
15,COC(=O)CCC(=O)OC1(C)C(=O)C=C2C=C(c3ccsc3)OC=C2C1=O (centres undefined),active: 20 µM
16,CN(Cc1ccco1)c1nc(-c2cccnc2)nc2ccccc12,"inconclusive: 25.1 µM [inhibitor, single point]"
17,O=C(O)COc1ccc2ccccc2c1,inactive
18,COc1ccc(-c2cn3c(n2)sc2cc(C(=O)NC(C)C45CC6CC(CC(C6)C4)C5)ccc23)cc1 (centres undefined),inactive
19,O=C(N/N=C/C=C/c1ccco1)/C(=C/c1ccccc1)NC(=O)c1ccccc1,"inconclusive: 100 µM [inhibitor, single point]"
20,C/C(=N\NC(=O)c1cccc(N/N=C(\C)c2ccco2)c1)c1ccco1,active: 89.1 µM
21,O=c1c2ccccc2oc2cc(O)c(C3COCC(CO)C(O)C(O)C3O)c(O)c12 (centres undefined),active: 2.51 µM
22,CC1CCC/C=C/C(=O)c2c(O)cc(O)cc2CC(=O)O1 (centres undefined),active: 79.4 µM

row,SMILES,Potency
1,COc1cc([C@@H]2Oc3cc([C@H]4Oc5cc(O)cc(O)c5C(=O)[C@H]4O)ccc3O[C@H]2CO)ccc1O,"inconclusive: 10 µM [inhibitor, partial curve]"
2,CC(C)(C)CC(C)(C)c1ccc(O)c(Cc2ccc(Cl)cc2Cl)c1,"inconclusive: 20 µM [inhibitor, single point]"
3,COc1ccccc1CCNC(=O)Cn1ccc2cc(S(=O)(=O)N3CCCCC3)ccc21,"inconclusive: 89.1 µM [inhibitor, single point]"
4,c1cncc(CNc2ncnc3ccc(-c4ccoc4)cc23)c1,"inconclusive: 31.6 µM [inhibitor, single point]"
5,COc1cc2c(Cc3ccccc3)cncc2cc1O,active: 89.1 µM
6,COc1ccc(CCn2c(C)cc(C(=O)COC(=O)c3ccc(NC(=O)CC#N)cc3)c2C)cc1,"inconclusive: 79.4 µM [inhibitor, single point]"
7,Cc1cc(SCC(=O)N/N=C/c2ccc(O)c(O)c2)nc2ccccc12,"inconclusive: 56.2 µM [inhibitor, partial curve, poor fit]"
8,COC(=O)N1CCC2(CC1)CN(c1cccc(-c3ccccc3)c1)C2,"inconclusive: 35.5 µM [inhibitor, partial curve, poor fit]"
9,C[n+]1ccc(/C=C/c2ccc([N+](C)(C)C)cc2)c2ccccc21,"inconclusive: 44.7 µM [inhibitor, partial curve]"
10,N#Cc1c(N)nc2c3c(sc(=N)c2c1N)NC(=O)CC3c1ccccc1Cl (centres undefined),"inconclusive: 89.1 µM [inhibitor, partial curve, poor fit]"
11,O=C1CCCC(O)=C1N=Nc1c(Cl)cc(C(F)(F)F)cc1Cl,"inconclusive: 89.1 µM [inhibitor, single point]"
12,Cc1ccc(S(=O)(=O)N2CCN(C(=O)c3cccc(-n4cccc4)c3)CC2)cc1,active: 79.4 µM
13,N#C/C(=C/c1ccc(N2CCCCC2)o1)C(=O)Nc1ccc2ccccc2c1,inactive
14,C=C1c2ccccc2O[C@H](C(=O)OCC)[C@@H]1C1CCCCC1 (tested in a mixture with another compound),"inconclusive: 89.1 µM [inhibitor, partial curve, poor fit]"
15,COc1ccc(Cl)cc1NC(=O)c1cccc(S(=O)(=O)Nc2c(C)n(C)n(-c3ccccc3)c2=O)c1,"inconclusive: 89.1 µM [inhibitor, single point]"
16,Cc1c(Br)c(O)c(Br)c(O)c1/C=N/n1c(-c2ccccc2)n[nH]c1=S,active: 35.5 µM
17,CCCCN(C(=O)c1cccc(-n2cccc2)c1)c1c(N)n(CCC)c(=O)[nH]c1=O,"inconclusive: 50.1 µM [inhibitor, partial curve, poor fit]"
18,O=C(O)CCCC(=O)Nc1ccc(N2CCCC2)cc1,active: 35.5 µM
19,NNC(=O)c1cc(NS(=O)(=O)c2cccs2)cc(NS(=O)(=O)c2cccs2)c1,"inconclusive: 89.1 µM [inhibitor, single point]"
20,O=C(O)c1ccccc1Nc1ccc(CCc2ccc(Cl)c(Cl)c2)cc1,"inconclusive: 33.6 µM [inhibitor, single point]"

# Source: PubChem BioAssay AID588579 (National Center for Advancing Translational Sciences (NCATS), 2011)
